Screen size: about 43,000 compounds; about 200 (0.47%) were called active. The shares of active, inactive and inconclusive entries below differ from those in the screen. The call rests on the fitted dose curve; in most records, active means well fitted cell-killing curve with a large enough effect; inconclusive means small, poorly fitted or top-dose-only effect, or effect the other way; inactive means flat fitted curve, though single readings scatter. Potencies beside an inconclusive call are fits to weak or partial responses and may not hold up.
Test: Cell viability qHTS assay in S16 Pmp22-F2sN cells; further: nearly all actives have a fitted effect of over 65% in size
Conditions: S16 Pmp22-F2sN Schwann cells (luciferase reporters placed in the Pmp22 gene) viability, CellTiter-Glo, 24 h; series mostly up to 57.5 µM
Method in brief: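 Seed 500-1,000 S16 Pmp22-F2sN cells per well in phenol-red-free DMEM with 10% heat-inactivated FBS; pin-add 23 nL compound; incubate 24 h at 37C; add CellTiter-Glo, wait 15 min protected from light; read luminescence.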
With `COc1cccc(CNC(=O)Cn2c(SCC(=O)Nc3ccc(C)c(C)c3)nc3ccccc32)c1` the Potency was inconclusive: 25.1 µM [cytotoxic, single point].
For `Cc1cc(Nc2cccc(C(F)(F)F)c2)nc2ccc(NC(=O)c3cccnc3)cc12`, the Potency was inconclusive: 35.5 µM [cytotoxic, single point].
In the case of `CCOc1ccc(C2C(C(N)=O)=C(C)Nc3nc(-c4cccc(Cl)c4)nn32)cc1OC` (stereo not given), the Potency is reported as inconclusive: 3.55 µM [cytotoxic, full curve, poor fit].
In the case of `COc1ccc(CCNC(=O)c2nc(SCc3ccccc3F)ncc2Cl)cc1OC`, the Potency is reported as “inactive”.
In the case of `COc1ccc(-c2cn3nc(N4CCCC(C(=O)Nc5ccccc5OC)C4)sc3n2)cc1` (stereo not given), the Potency is reported as inconclusive: 3.55 µM [rising, single point].
With `COc1ccc(-c2noc(N3CCC(C(=O)N4CCN(c5ccccc5F)CC4)CC3)n2)cc1` the Potency was inconclusive: 39.8 µM [cytotoxic, single point].
With `CC(C)(C)C1CCc2nc(NC(=O)c3ccc([N+](=O)[O-])cc3)sc2C1` (stereo not given) the Potency was inconclusive: 1.41 µM [rising, full curve].
With `CCOc1ccc(NC(=O)c2c(Nc3ccccc3C)sc(C(=O)c3ccc(Cl)cc3)c2N)cc1` the Potency was inconclusive: 39.8 µM [rising, single point].
In the case of `CCCN1CCN(c2cc3c(cc2F)c(=O)c(S(=O)(=O)c2ccc(CC)cc2)cn3CC)CC1`, the Potency is reported as inconclusive: 31.6 µM [cytotoxic, single point].
For `N#CC1=C2SCN(C3CCCCC3)CN2C(=O)CC1c1c(F)cccc1Cl` (stereo not given), the Potency was “inactive”.
With `COc1ccc(Cn2c(CO)cnc2SCc2ccc(F)cc2)cc1` the Potency was “inactive”.
In the case of `COc1ccc(-n2nc(C(=O)N(C)c3cc(Cl)ccc3OC)c3c4ccccc4n(C)c3c2=O)cc1`, the Potency is reported as inconclusive: 1.78 µM [cytotoxic, full curve, poor fit].
For `CCOC(=O)c1ccc(-c2ccc(/C=C(\C#N)c3nc4ccc(C)cc4[nH]3)o2)cc1`, the Potency was inconclusive: 39.8 µM [cytotoxic, single point].
For `COc1ccc(-c2cc(-c3ccc(F)cc3)nc3c2COc2ccc(F)cc2-3)cc1`, the Potency was inconclusive: 7.94 µM [rising, full curve, poor fit].
For `CCOc1ccc(-n2c(/C=C/c3cccc(F)c3)nc3cc(OC)c(OC)cc3c2=O)cc1`, the Potency was inconclusive: 15.8 µM [cytotoxic, partial curve].
With `COc1cccc(CNCCSc2nnnn2C)c1OCc1ccccc1Cl` the Potency was inconclusive: 39.8 µM [cytotoxic, single point].
For `COc1ccc(CC(=O)Nc2sc3c(c2C(=O)Nc2cccc(Cl)c2)CCCCC3)cc1`, the Potency was inconclusive: 39.8 µM [cytotoxic, single point].
With `O=C(NCc1ccccc1)c1cc2sccc2n1Cc1ccc(Cl)cc1` the Potency was “inactive”.
With `CCOc1ccc(N(C)C(=O)CS(=O)(=O)c2cccc3nsnc23)cc1` the Potency was “inactive”.
For `O=C(CSc1oc(-c2ccccc2)nc1S(=O)(=O)c1ccc(Cl)cc1)Nc1ccc(F)cc1`, the Potency was inconclusive: 35.5 µM [cytotoxic, single point].
For `C=Cc1ccc(Cn2c(C(=O)O)c(CNC3CCCC3)c3ccc(C)cc32)cc1`, the Potency was inconclusive: 22.4 µM [cytotoxic, partial curve, poor fit].
In the case of `CN(C)S(=O)(=O)c1ccc2c(c1)N(CC(=O)Nc1ccc(OC(F)(F)F)cc1)C(=O)CS2`, the Potency is reported as inconclusive: 10 µM [cytotoxic, partial curve, poor fit].
With `CC(C(=O)NCc1ccc(Cl)cc1)n1ccc2cc(S(=O)(=O)N3CCCCCC3)ccc21` (stereo not given) the Potency was inconclusive: 35.5 µM [cytotoxic, single point].
In the case of `CCCN(CCC)CC(O)Cn1cc(/C=C/C(=O)c2ccc(C)cc2)c2ccccc21` (stereo not given), the Potency is reported as inconclusive: 39.8 µM [cytotoxic, single point].
For `CCOC(=O)N1CCN(Cc2nc3cc(NC(=O)c4ccccc4[N+](=O)[O-])ccc3n2C(C)C)CC1`, the Potency was inconclusive: 10 µM [cytotoxic, partial curve, poor fit].
For `COc1cccc(N2CCN(c3ncnc4c3nc3n4CCCCC3)CC2)c1`, the Potency was inconclusive: 39.8 µM [cytotoxic, single point].
With `COc1cc(CNC(=O)c2ccc3nc(CCc4ccccc4)oc3c2)cc(OC)c1OC` the Potency was inconclusive: 20 µM [cytotoxic, partial curve, poor fit].
For `COc1ccc2c(c1)CCc1c(C(=O)Nc3c(C)nn(Cc4ccccc4C)c3C)noc1-2`, the Potency was inconclusive: 14.1 µM [cytotoxic, partial curve].
In the case of `Cc1cccc(NC(=O)c2cc3c(=O)n4cccc(C)c4nc3s2)c1C`, the Potency is reported as “inactive”.
For `CCOC(=O)c1oc2ccc(S(=O)(=O)n3nc(-c4cc(OC)c(OC)c(OC)c4)cc3N)cc2c1C`, the Potency was inconclusive: 22.4 µM [cytotoxic, partial curve, poor fit].
In the case of `CC(C)C(=O)Nc1ccccc1OCc1cc(=O)n2ccccc2n1`, the Potency is reported as “inactive”.
In the case of `CCOC(=O)c1c(C)[nH]c(C)c1S(=O)(=O)N1CCCC(C(=O)Nc2ccc(C)cn2)C1` (stereo not given), the Potency is reported as inconclusive: 17.8 µM [rising, partial curve].
With `CCN(c1ccccc1)c1ccc2cc(S(=O)(=O)N3CCCC3)ccc2n1` the Potency was inconclusive: 3.16 µM [rising, full curve, poor fit].
In the case of `O=C(O)c1ccc2nc(-c3cc4cccc(O)c4oc3=O)[nH]c2c1`, the Potency is reported as inconclusive: 17.8 µM [cytotoxic, partial curve].
In the case of `CCOC(=O)CSc1nc2ccccc2c(=O)n1-c1cccc(C)c1`, the Potency is reported as inconclusive: 7.94 µM [cytotoxic, partial curve, poor fit].
With `CCOc1ccc(-n2nc(CO)c(C(=O)NCc3cccs3)n2)cc1` the Potency was inconclusive: 8.91 µM [cytotoxic, partial curve].
For `Cc1ccc(N2C(=O)N(Cc3cc(=O)n4ccccc4n3)c3ccccc3S2(=O)=O)cc1Cl`, the Potency was inconclusive: 22.4 µM [cytotoxic, partial curve, poor fit].
With `CCOc1ccccc1CNC(=O)Cn1cc2c(n1)-c1c(oc(C(=O)N3CCCC3)c1C)CC2` the Potency was inconclusive: 39.8 µM [cytotoxic, single point].
With `CCc1cccc(C)c1NC(=O)CCn1c(=O)c2cccn2c2ccccc21` the Potency was inconclusive: 39.8 µM [cytotoxic, partial curve, poor fit].
With `Cc1ccc(Cl)cc1-n1ncc2c(NCCCc3ccccc3)ncnc21` the Potency was inconclusive: 14.1 µM [cytotoxic, partial curve, poor fit].
In the case of `CCCCC(=O)OCc1cc(=O)n2nc(C3CCCCC3)sc2n1`, the Potency is reported as inconclusive: 7.94 µM [cytotoxic, full curve, poor fit].
In the case of `Cc1ccc(C(=O)Nc2nc3n(n2)C(c2ccc(F)cc2)C=C(c2ccccc2)N3)cc1` (stereo not given), the Potency is reported as inconclusive: 39.8 µM [cytotoxic, single point].
In the case of `CCCCNc1nc2c(c(=O)n(C)c(=O)n2C)n1CC(O)COc1ccccc1C` (stereo not given), the Potency is reported as inconclusive: 39.8 µM [cytotoxic, partial curve, poor fit].
For `CCCSc1ncc(Cl)c(C(=O)NCc2ccc(OC)cc2)n1`, the Potency was “inactive”.
With `COc1ccc(-c2cn3nc(N4CCCC(C(=O)Nc5cccc(Cl)c5C)C4)sc3n2)cc1` (stereo not given) the Potency was inconclusive: 39.8 µM [cytotoxic, single point].
For `CCOCCn1ccc2c(OCC(=O)NCc3ccc(C)cc3)cccc2c1=O`, the Potency was “inactive”.
In the case of `COc1cc(Nc2nc(SCC(=O)c3ccc(Br)cc3)nc3ccccc23)cc(OC)c1`, the Potency is reported as inconclusive: 2.82 µM [rising, partial curve, poor fit].
In the case of `CC(=O)N1CCc2c(sc(NC(=O)CSc3ccccc3)c2-c2nc3ccccc3s2)C1`, the Potency is reported as inconclusive: 39.8 µM [cytotoxic, single point].
With `CCOC(=O)c1c(-c2ccccc2)oc2ccc(NS(=O)(=O)c3cc(C)c(C)cc3C)cc12` the Potency was inconclusive: 25.1 µM [cytotoxic, partial curve, poor fit].
With `Cc1ccc(NC(=O)CN2C(=O)CCc3cc(S(=O)(=O)N4CCOCC4)ccc32)cc1F` the Potency was inconclusive: 1.78 µM [cytotoxic, single point].
For `CCOc1ccc(CNC(=O)C2Cc3ccccc3N2C(=O)CC)cc1OC` (stereo not given), the Potency was “inactive”.
In the case of `Cc1cccc(CNC(=O)CCn2c(=O)c3cccn3c3ccc(F)cc32)c1`, the Potency is reported as inconclusive: 0.282 µM [cytotoxic, full curve, poor fit].
For `COc1ccc(NC(=O)CSc2nc(-c3ccco3)cc(C(F)(F)F)n2)cc1OC`, the Potency was inconclusive: 7.94 µM [cytotoxic, full curve].
For `CN(Cc1ccccc1)S(=O)(=O)c1nnc(NC(=O)c2cccc(Cl)c2)s1`, the Potency was inconclusive: 31.6 µM [cytotoxic, single point].
With `COc1ccc(CNc2nc3c(-c4ccccc4)nnn3c3ccccc23)cc1` the Potency was inconclusive: 10 µM [rising, partial curve, poor fit].
With `O=C(Nc1ccc(F)cc1)c1csc2c1CCCCC2` the Potency was “inactive”.
With `O=C(NCCc1ccccc1)c1nc(-c2ccc(Cl)cc2)n2c1CCCCC2` the Potency was inconclusive: 28.2 µM [cytotoxic, single point].
For `COc1ccc(CC(=O)Nc2sc3c(c2C(=O)Nc2ccccc2)CCCCC3)cc1`, the Potency was inconclusive: 12.6 µM [cytotoxic, partial curve].
With `O=S(=O)(NCCS(=O)(=O)N1CCN(c2ccccc2)CC1)c1ccc(Br)cc1` the Potency was “inactive”.
For `Cc1ccccc1NC(=O)Cn1cc(C(=O)c2cccs2)c2ccccc21`, the Potency was inconclusive: 31.6 µM [cytotoxic, single point].

From PubChem BioAssay AID1508642 (National Center for Advancing Translational Sciences (NCATS), 2021)
Potency means the concentration at half of the fitted maximal effect; tags describe the fitted curve by direction and shape.
